{"source": "PubChem BioAssay AID1963576", "about": "(National Center for Advancing Translational Sciences (NCATS), 2024)", "note": "Screen size: about 46,000 compounds; about 60 (0.1%) were called active. About 3% were inconclusive and are not listed. Calls follow the shape of the dose curve; as a rule, active = well fitted inhibition curve with a large enough effect; inconclusive = small, poorly fitted or top-dose-only effect; inactive = no such curve, though single readings can be large or run the other way. The list shows a part of the results.", "data": [{"experiment": "Primary qHTS assay for Inhibitors of ovarian cancer metastasis using an organotypic tumor microenvironment (TME) model; also: nearly all actives have a fitted effect of over 65% in size.", "settings": "SKOV3ip1-GFP adhesion/invasion on 3D omental model, fluorescence; series mostly up to 45.8 µM; activity change, negative = inhibition: at the top concentration", "source_text": "PI: Ernst Lengyel MD., Ph.D. Department of Obstetrics and Gynecology, Section of Gynecologic Oncology University of Chicago Medicine, Chicago, Illinois. The tumor microenvironment (TME) is a key determinant of metastatic efficiency. We performed a quantitative high-throughput screen (qHTS) of diverse medicinal chemistry tractable scaffolds (44,420 compounds) and pharmacologically active small molecules (386 compounds) using a layered organotypic, robust assay representing the ovarian cancer metastatic TME. This 3D model contains primary human mesothelial cells, fibroblasts, and extracellular matrix, to which fluorescently labeled ovarian cancer cells are added. Initially, 100 compounds inhibiting ovarian cancer adhesion/invasion to the 3D model in a dose-dependent manner were identified. Of those, eight compounds were confirmed active in five high-grade serous ovarian cancer cell lines and were further validated in secondary in vitro and in vivo biological assays. […] Specifically, NCGC00117362 and PP-121 inhibited ovarian cancer adhesion, invasion, and proliferation, whereas milciclib inhibited ovarian cancer invasion and proliferation. […] To evaluate the clinical potential of NCGC00117362, structure - activity relationship studies were performed. […] The three compounds identified have promise as therapeutics for prevention and treatment of ovarian cancer metastasis.\nPROTOCOL TABLE (as described by Inglese J, Shamu CE and Guy RK. 2007) SEQUENCE No. (e.g., 1, 2, 3, etc.); […] (e.g., Cells, Incubation, Reagent, etc.); VALUE; DESCRIPTION. 1; Cells; 4 uL; primary human omental fibroblast, black, clear bottom, low base, 1536-well Aurora assay plate. 2; Incubation; 48 hr; 37C. 3; Cells; 3 uL; 1,200 SKOV3ip1-GFP cells. 4; Compounds; 23nL; acoustic dispenser. 5; Incubation; 2 hr; room temperature. 6; Incubation; 16 hr; 37C. 7; Wash; 5 uL; 1x PBS. 8; Fixing; 5 uL; 4% paraformaldehyde (PFA). 9; Incubation; 15 min; room temperature 10; Wash, 5 uL; 1x PBS. 11; Detection; Fluorescence, excitation filter 488 nm, emission filter 509 nm. NOTES (numbers refer to Sequence numbers above) 1. For the 1,536-well format, 40 primary human omental fibroblasts and 400 mesothelial cells were seeded with 0.02 µg fibronectin and 0.02 µg collagen type I in 4 µL of growth media (2.3 mm2; Supplementary Fig. S1A). 2. Assay plates were incubated for 48 hours at 37 C. 3. After incubation, 1,200 SKOV3ip1-GFP were seeded in 3 µL of serum-free media (growth media minus FBS) on top of primary human omental cells. 4. Compounds or controls were added to each well immediately after the addition of the cancer cells. Compounds were screened in four doses (0.36-46 µmol/L), and the plates contained the positive control (Tomatine) in eight doses (0.035-75 µmol/L) and DMSO (equal volume controls) 5 - 6. The plates were incubated at room temperature for 2 hours and then at 37 degrees C for 16 hours. 7 - 10. Following incubation, the media were aspirated and each well washed with PBS (5 µL) and then fixed with 4% paraformaldehyde (PFA; 5 µL). After 15 minutes, the PFA solution was aspirated, PBS (5 µL) was added. 11. The number of GFP-labeled cells analyzed using a fluorescent cytometer TTP LabTech Acumen eX3 using 488 nm excitation filter and 509 nm emission filter. Data was normalized to the DMSO treated for negative and Tomatine treated wells for positive control. REFERENCES: Inglese J, Shamu CE and Guy RK, Reporting data from high throughput screening of small molecule libraries, Nature Chemical Biology, 2007, 3(8): 438-441. doi.org/10.1038/nchembio0807-438. Yasgar A, Shinn P, Jadhav A, Auld DS, Michael S, Zheng W, Austin CP, Inglese J and Simeonov A, Compound Management for Quantitative High-Throughput Screening. J. Assoc. Lab. Auto., 2008, 13: 79-89. doi: 10.1016/j.jala.2007.12.004.", "values": [{"smiles": "COc1ccc(NC(=O)CCc2c(C)nn(-c3ccc(N4CCCC4)nn3)c2C)cc1Cl", "outcome": "inactive"}, {"smiles": "COC(=O)c1cc(-c2ccc(Cl)cc2)c2c(=O)[nH]c(=O)n(C)c2n1", "activity change, negative = inhibition": "inactive: 3.5%"}, {"smiles": "CCOCCCNC(=O)C1CCN(c2nc3ccc(C)cc3[nH]2)CC1", "activity change, negative = inhibition": "inactive: 20%"}, {"smiles": "COCCn1c(C)cc(O)c(C(c2ccccc2)N2CCN(c3ccccc3F)CC2)c1=O", "note": "(stereo unspecified)", "outcome": "inactive"}, {"smiles": "O=C(CSc1cn(CCNC(=O)c2ccccc2F)c2ccccc12)Nc1ccc2c(c1)OCCO2", "outcome": "inactive"}, {"smiles": "CCS(=O)(=O)c1ccc(C(=O)N2CCN(c3nc4c(OC)ccc(C)c4s3)CC2)cc1", "outcome": "inactive"}, {"smiles": "CC(Nc1ccc(-c2nc(-c3cccnc3)no2)cc1[N+](=O)[O-])c1ccccc1", "note": "(stereo unspecified)", "outcome": "inactive"}, {"smiles": "C=CCc1ccc(O)c(-c2ccc(O)c(CC=C)c2)c1", "activity change, negative = inhibition": "inactive: 18.1%"}, {"smiles": "COc1cc([C@@H]2c3cc4c(cc3[C@H](O)[C@H]3COC(=O)[C@H]23)OCO4)cc(OC)c1OC", "activity change, negative = inhibition": "inactive: 35.6%"}, {"smiles": "COc1ccc(NC(=O)c2c(-c3ccc(C)cc3)nnc3ccccc23)cc1OC", "outcome": "inactive"}, {"smiles": "CC1CCCCN1Cc1nc2c(c(=O)n(C)c(=O)n2C)n1Cc1ccc(Br)cc1", "note": "(stereo unspecified)", "activity change, negative = inhibition": "inactive: -3.08%"}, {"smiles": "Cc1ccc(NC(=O)CCn2nc(C)c3c(C)n(-c4ccccc4)nc3c2=O)cc1Cl", "activity change, negative = inhibition": "inactive: -3.5%"}, {"smiles": "O=C(Cn1ncc2ccsc2c1=O)N1CCN(c2ccc(Cl)cc2)CC1", "outcome": "inactive"}, {"smiles": "COc1cccc(NC(=O)CSc2cc(C)c3ccccc3n2)c1", "activity change, negative = inhibition": "inactive: -2.87%"}, {"smiles": "COc1ccccc1-c1nc(CNC(=O)NC2CCCCC2)c(C)o1", "activity change, negative = inhibition": "inactive: -11.8%"}, {"smiles": "CCCOc1ccc(NC(=O)CC2C(=O)N(c3cccc(OC)c3)C(=O)N2CCc2ccncc2)cc1", "note": "(stereo unspecified)", "activity change, negative = inhibition": "inactive: 8.59%"}, {"smiles": "CC(C)c1ccc(NC(=O)c2cn(C3CCCC3)c(=O)c3c2c2ccccc2n3C)cc1", "activity change, negative = inhibition": "inactive: -2.27%"}, {"smiles": "CC(C)C[C@H](NC(=O)[C@@H](O)[C@H](N)Cc1ccccc1)C(=O)O", "activity change, negative = inhibition": "inactive: 0.794%"}, {"smiles": "Cc1cc(C)cc(C(=O)Nc2ccc(-c3nc4ncccc4o3)cc2)c1", "activity change, negative = inhibition": "inactive: -5.6%"}, {"smiles": "CCN1CCSc2ccc(C(=O)NC(C)c3ccccc3)cc21", "note": "(stereo unspecified)", "activity change, negative = inhibition": "inactive: -23.1%"}, {"smiles": "CCOc1ccc2nc(NC(=O)c3cc(=O)c4ccc(C)cc4o3)sc2c1", "outcome": "inactive"}, {"smiles": "O=C(NCc1ccc(Cl)cc1)c1cc(S(=O)(=O)N2CCCCC2)c[nH]1", "activity change, negative = inhibition": "inactive: 9.41%"}, {"smiles": "Cc1c2cnn(CC(=O)N3CCN(c4ccc(F)cc4)CC3)c(=O)c2c(C)n1Cc1ccc(F)cc1", "activity change, negative = inhibition": "inactive: -8.27%"}, {"smiles": "Cc1nn(CCCC(=O)NCc2ccc(F)cc2)c(=O)c2c1sc1ccccc12", "activity change, negative = inhibition": "inactive: -1.27%"}, {"smiles": "CCOc1ccc(N2CC(c3nc4ccccc4n3Cc3cccc(Cl)c3)CC2=O)cc1", "note": "(stereo unspecified)", "activity change, negative = inhibition": "inactive: 4.12%"}, {"smiles": "Cc1ccc(-n2ncc(C(=O)N3CCN(c4cccc(C)c4)C(C)C3)c2C2CCN(C(=O)OC(C)(C)C)CC2)cc1", "note": "(stereo unspecified)", "activity change, negative = inhibition": "inactive: 4.15%"}, {"smiles": "Cc1ccc(CNC(=O)Cn2nc(C)n3cccc3c2=O)cc1", "activity change, negative = inhibition": "inactive: -21.7%"}, {"smiles": "Cc1c(NC(=O)c2cc(-c3ccc(Cl)c(Cl)c3)on2)c(=O)n(-c2ccccc2)n1C", "activity change, negative = inhibition": "inactive: 2.27%"}, {"smiles": "COc1ccccc1CNC(=O)CCn1c(=O)c2ccccc2n(CC(=O)Nc2cccc(Cl)c2)c1=O", "outcome": "inactive"}, {"smiles": "CCOC(=O)c1cc(-c2ccccc2)n(-c2cccc(C(=O)Nc3ccc(F)c(F)c3)c2)c1C", "activity change, negative = inhibition": "inactive: 2.8%"}, {"smiles": "COc1c(C)cc(S(=O)(=O)NCCc2c(C)[nH]c3ccccc23)c(C)c1C", "activity change, negative = inhibition": "inactive: 8.76%"}, {"smiles": "Cc1ccc(NC(=O)Nc2nnc(N(CC(C)C)CC(C)C)s2)cc1Cl", "activity change, negative = inhibition": "inactive: -3.86%"}, {"smiles": "COc1ccc(N2CCN(C(=O)CCc3c(C)nn(-c4ccc(N5CCCC5)nn4)c3C)CC2)cc1", "activity change, negative = inhibition": "inactive: -0.334%"}, {"smiles": "Cc1ccc(NC(=O)c2cnn3c(C(F)F)cc(-c4ccccc4)nc23)c(C)c1", "activity change, negative = inhibition": "inactive: 27.6%"}, {"smiles": "COc1ccc(OC)c(NC(=O)C2CCCN(S(=O)(=O)c3c(C)nn(C)c3C)C2)c1", "note": "(stereo unspecified)", "activity change, negative = inhibition": "inactive: -17%"}, {"smiles": "CCOC(=O)c1ccc(NC(=O)CCCc2nc(-c3ccccc3Cl)no2)cc1", "activity change, negative = inhibition": "inactive: 1.33%"}, {"smiles": "CCOc1ccc(-c2cc(NC(=O)Nc3cccc(C(C)=O)c3)c(C(=O)OC)s2)cc1", "activity change, negative = inhibition": "inactive: -16.2%"}, {"smiles": "CCOc1ccc(S(=O)(=O)NCC(c2ccco2)S(=O)(=O)c2cccs2)cc1", "note": "(stereo unspecified)", "activity change, negative = inhibition": "inactive: -1.32%"}, {"smiles": "COc1ccc(NC(=O)C2=C(C)Nc3ncnn3C2c2ccc(O)cc2)cc1", "note": "(stereo unspecified)", "activity change, negative = inhibition": "inactive: -27.6%"}, {"smiles": "O=C(O)c1ccc2c(c1)ncn2-c1ccc(F)c(F)c1", "activity change, negative = inhibition": "inactive: -7.07%"}, {"smiles": "CCOC(=O)CSc1nc2ccc(NC(=O)c3ccc(C)cc3)cc2s1", "activity change, negative = inhibition": "inactive: -5.85%"}, {"smiles": "CCc1ccc(CNC(=O)Cc2ccc(NC(=O)N3CCSc4ncccc43)cc2)cc1", "activity change, negative = inhibition": "inactive: 7.07%"}, {"smiles": "COc1cccc(N2CCN(C(=O)C(CCSC)NS(=O)(=O)c3ccc4c(c3)oc(=O)n4C)CC2)c1", "note": "(stereo unspecified)", "outcome": "inactive"}, {"smiles": "CCOc1ccc(-c2nonc2NC(=O)c2oc3cc(C)ccc3c2C)cc1", "activity change, negative = inhibition": "inactive: -4.79%"}, {"smiles": "CCCCSCCCNC(=O)CN1C(=O)c2cccnc2Oc2ccc(Cl)cc21", "activity change, negative = inhibition": "inactive: -13.5%"}, {"smiles": "Cc1ccc(C)c(NC(=O)c2ccc3c(O)c(S(=O)(=O)c4ccc(Cl)cc4)c(=O)[nH]c3c2)c1", "activity change, negative = inhibition": "inactive: -8.18%"}]}]}
